In PubChem BioAssay AID463173 (ICCB-Longwood Screening Facility, Harvard Medical School, 2010):
In all, about 52,000 compounds went through this assay and about 1,700 (3.3%) were called active. No stated cut-off is given here; in the data, active means survival mostly below about 52% (no sharp cut-off); inactive means mostly above about 56%. The list shows a part of the results.

System: Wild type
Experiment: growth inhibition of S. aureus wild type versus tarO mutant, primary screen, teichoic acid synthesis inhibitors, RN4220, OD600 (AID 463173)
Settings: S. aureus RN4220 wild type/DeltatarO growth, OD600, 18 h, stronger effect = lower value, screened at 18.75 µg/mL (by protocol)

Compound | survival
COc1ccc(Cn2c(CO)cnc2SCc2cccc(C)c2)cc1 | inactive: 78%
COc1ccccc1N1CCN(C(=O)CCS(=O)(=O)c2cc(Br)cc3c2N(C(C)=O)CC3)CC1 | inactive: 69%
COc1ccc(CNC(=O)c2cc3c(=O)n(C)c4ccccc4c3n2C)c(OC)c1 | inactive: 66%
Cc1cc(C)c2oc(-c3ccc(C)c(NC(=O)/C=C/c4ccco4)c3)nc2c1 | inactive: 59%
O=C(COc1ccc(Cl)cc1)NCC(c1ccco1)S(=O)(=O)c1ccc(Cl)cc1 (stereo unspecified) | inactive: 78%
Cc1nc(N2CCCC2)ncc1C(=O)N1CCN(c2ccccc2F)CC1 | inactive: 74%
CCC(C)(C)NS(=O)(=O)c1cccs1 | inactive: 93%
COc1cccc(-c2nc(S(=O)(=O)c3ccccc3)c(N3CCC(C)CC3)o2)c1 | inactive: 43%
COc1ccc(/C=C/C(=O)O)cc1S(=O)(=O)N1CCCC1 | inactive: 101%
Cc1ccc(C(=O)n2nc(C)c(S(=O)(=O)N3CCOCC3)c2C)cc1C | inactive: 82%
CC1=C(C(=O)Nc2ccccc2)C(c2cc(Br)ccc2F)n2ncc(C(=O)Nc3ccccc3)c2N1 (stereo unspecified) | inactive: 134%
CCS(=O)(=O)c1c(Nc2cc(C)ccc2C)sc(C(=O)c2ccccc2)c1N | inactive: 82%
Cc1ccc(NC(=O)c2nnn(CC(=O)Nc3ccc(C)c(Cl)c3)c2N)c(C)c1 | inactive: 130%
O=C(c1nc2ncccn2n1)N1CCN(C(c2ccccc2)c2ccccc2)CC1 | inactive: 118%
O=c1c2ccccc2nc(-c2ccc(Cl)cc2)n1CCCOc1ccccc1F | inactive: 64%
CC(C)c1ccc(NC(=O)CC2Oc3ccccc3NC2=O)cc1 (stereo unspecified) | inactive: 99%
Cc1cc(OCC(=O)N(Cc2ccc(N(C)C)cc2)C2CCS(=O)(=O)C2)cc(C)c1Cl (stereo unspecified) | inactive: 89%
COc1ccc(NC(=O)Cn2c(=O)n(-c3ccc(OC)cc3)c(=O)c3ccc(C(=O)NCc4ccc(C)cc4)cc32)cc1 | inactive: 80%
COc1cc(C(=O)NCCc2csc3nc(-c4ccccc4C)nn23)cc(OC)c1OC | inactive: 117%
CC(C)Nc1c(-c2ccccc2)nc2ccccn12 | inactive: 108%
Cc1ccc(Cl)cc1NC(=O)CN1C(=O)COc2ccc(S(=O)(=O)N3CCCCCC3)cc21 | inactive: 82%
COc1ccccc1CCNC(=O)CCc1c(C)c2cc3c(C)c(C)oc3cc2oc1=O | inactive: 109%

Compound | survival
Cc1ccc(NC(=O)C(=O)NCC(c2ccc3c(c2)OCO3)N2CCN(c3ccccc3)CC2)cc1 (stereo unspecified) | inactive: 75%
CCN(C(=O)C(Cc1ccccc1)NS(=O)(=O)c1cccc2nsnc12)c1ccccc1 (stereo unspecified) | inactive: 74%
O=C(c1cccs1)c1cn(CCOc2ccccc2Cl)c2ccccc12 | inactive: 80%
CCOc1ccc(CCNC(=O)c2ccc(-c3nc(COc4ccc(C)cc4)c(C)o3)cc2)cc1 | inactive: 81%
COc1ccc(NC(=O)CSc2nc(-c3ccc(F)cc3)c3cccc(C)c3n2)cc1 | inactive: 85%
Cc1ccc(C)c(NC(=O)CCc2c(C)nn(-c3ccc(N4CCCC4)nn3)c2C)c1 | inactive: 60%
COc1ccc(CCNC(=O)c2ccc(Cn3c(=O)c4ccccc4n(Cc4ccc(C)cc4)c3=O)cc2)cc1OC | inactive: 99%
COc1ccc(C2C(=O)N(C3CCCCCC3)CC(=O)N2CCc2ccc(OC)c(OC)c2)cc1 (stereo unspecified) | inactive: 98%
Cc1ccc2nc(CN3CCN(C(=O)Nc4ccc(C)c(F)c4)CC3)oc2c1 | inactive: 84%
CCCCCC(=O)Nc1ccc(Cc2ccncc2)cc1 | inactive: 113%
COCCCn1c(SCC(=O)Nc2ccccc2OC)nc2c(sc3ccccc32)c1=O | inactive: 90%
COC(=O)c1ccc(OC)c(Cn2c(=O)n(-c3cccc(Cl)c3)c(=O)c3c4c(sc32)CN(C(C)=O)CC4)c1 | inactive: 75%
COc1ccc(-c2oc3ncn4nc(COc5ccccc5C)nc4c3c2-c2ccc(OC)cc2)cc1 | inactive: 72%
CCOC(=O)C1CCCN(C(=O)Cn2ncn3c(cc4sc(CC)cc43)c2=O)C1 (stereo unspecified) | inactive: 74%
CCC1=Nc2cc(C(=O)NCc3ccc(C)cc3)ccc2Sc2ccc(C)cc21 | inactive: 74%
CCCCN(C)CCCNC(=O)c1cc(-c2cccnc2)nc2ccccc12 | inactive: 77%
COc1cc(OC)c(NC(=O)Cc2ccc(-n3c(C)nc4cccnc43)cc2)cc1Cl | inactive: 124%
O=C(Nc1ccc(F)cc1)[C@@H](c1ccccc1)N1Cc2ccccc2C1=O | inactive: 59%
COc1ccc(CCNC(=O)CCc2cn(Cc3ccc(C)cc3)c3ccccc23)c(OC)c1OC | inactive: 77%
CCOc1cc2[nH]c(=O)n(CCCCC(=O)N3CCN(c4ccccc4)CC3)c(=O)c2cc1OCC | inactive: 73%
CCC(C)NC(=O)c1[nH]c2cc(C)ccc2c1Sc1ccc(Cl)cc1 (stereo unspecified) | inactive: 96%
COc1ccc(-c2noc(N3CCC(C(=O)N(C)c4cc(Cl)ccc4OC)CC3)n2)cc1 | inactive: 85%

Compound | survival
O=C(Nn1cnnc1)c1cc2ccccc2oc1=O | inactive: 111%
COc1ccc2c(CNCCc3cccs3)c(C(=O)O)n(Cc3ccccc3C)c2c1 | inactive: 93%
O=C(CN1C(=O)COc2ccc(S(=O)(=O)N3CCCCCC3)cc21)N1CCN(c2cccc(C(F)(F)F)c2)CC1 | inactive: 80%
Cc1cccc(N2CCN(C(=O)C3CCN(S(=O)(=O)c4c(C)noc4C)CC3)CC2)c1C | inactive: 87%
COc1ccc2oc(=O)c(-c3cn4c(n3)sc3cc(F)ccc34)cc2c1 | inactive: 67%
Cc1cccc(C)c1OCC(=O)Nc1c(C(=O)c2ccc(Br)cc2)oc2ccccc12 | inactive: 76%
O=C(Nc1ccc(S(=O)(=O)N2CCCCC2)cc1)C1CCCCC1 | inactive: 106%
CCCn1c2ccccc2c2cnn(CC(=O)N(Cc3ccccc3)C(C)C)c(=O)c21 | inactive: 134%
CCCOc1ccc(-c2nc(N3CCC(C)CC3)c3ccccc3n2)cc1 | active: -2%
CCCCOc1ccc(S(=O)(=O)NCc2csc(-c3ccc(OC)cc3)n2)cc1 | inactive: 85%
COc1ccc(CC(=O)NCC(c2cccs2)S(=O)(=O)c2ccc(Cl)cc2)cc1 (stereo unspecified) | inactive: 73%
Cc1cc(F)ccc1NC(=O)c1ccc2nc(Cc3ccccc3)oc2c1 | inactive: 88%
COc1ccc(-n2ccn(CC(=O)NCc3ccc(C)cc3)c(=O)c2=O)cc1OC | inactive: 85%
Cc1ccc(OC(=O)c2ccco2)cc1C | inactive: 105%
Cc1ccc(S(=O)(=O)NCCc2nnc3ccc(SCc4ccc(F)cc4)nn23)cc1 | inactive: 105%
Cc1c(C(=O)N2CCCC2)oc2c1-c1nn(CC(=O)NC(C)c3ccccc3)cc1CC2 (stereo unspecified) | inactive: 84%
Cc1cn(C(=O)c2ccccc2)c(=O)[nH]c1=O | inactive: 107%
CCC(C(=O)Nc1cc(OC)ccc1OC)n1c(C)c2cnn(-c3ccccc3)c(=O)c2c1C (stereo unspecified) | inactive: 131%
Cc1ccc2oc(C(=O)Nc3cccc(-c4nc5ccccc5s4)c3)c(C)c2c1 | inactive: 72%
Cc1ccc(Nc2ncc(C(=O)N3CCN(c4cccc(Cl)c4)CC3)c3ccccc23)cc1Cl | inactive: 108%
COc1ccccc1Cn1cc(C(=O)c2ccc(F)cc2)c(=O)c2cc3c(cc21)OCO3 | inactive: 85%
Cc1ccccc1OCc1nnc(SCC(=O)O)n1CCc1ccccc1 | inactive: 99%

Compound | survival
Cc1ccc(C)c(N2CCN(C(=O)c3cc(S(=O)(=O)N4CCC(C)CC4)cn3C)CC2)c1 | inactive: 88%
COc1ccccc1C(=O)c1cn(CC(=O)Nc2ccccc2F)c2nc(C)ccc2c1=O | inactive: 74%
C=CCc1cccc2cc(-c3nc4ccc(C(=O)O)cc4[nH]3)c(=O)oc12 | inactive: 83%
COc1cc(NC(=O)CN2CCCN(S(=O)(=O)c3ccc(F)cc3)CC2)cc(OC)c1 | inactive: 81%
O=C(Nc1ccccc1Br)c1cc(S(=O)(=O)NC2CCCCC2)ccc1F | inactive: 123%
Cc1ccc2nc(-c3ccc(NC(=O)COc4ccccc4C(C)(C)C)cc3)sc2c1 | inactive: 115%
CCOC(=O)c1cc(S(=O)(=O)Nc2c(C)cc(C)cc2C)[nH]n1 | inactive: 87%
Cc1ccc(C)c(NC(=O)C2CCCN2S(=O)(=O)c2ccc3c(c2)n(C)c(=O)c(=O)n3C)c1 (stereo unspecified) | inactive: 71%
COc1ccc(C2C(C(=O)Nc3cccnc3)=C(C)Nc3nc(SCc4ccccc4)nn32)cc1 (stereo unspecified) | inactive: 85%
CCOCCCNC(=O)c1ccc(Cn2c(=O)c3cccn3c3cccnc32)cc1 | inactive: 88%
CC(=O)NC(C)c1nc2ccccc2n1Cc1ccccc1Cl (stereo unspecified) | inactive: 91%
CCOC(=O)N1CCN(c2ncc3c(n2)CC(c2ccc(Cl)cc2)CC3=O)CC1 (stereo unspecified) | inactive: 77%
CCOc1ccc(NC(=O)Nc2cc3c(cc2N2CCCCC2)n(C)c(=O)n3C)cc1 | inactive: 128%
COc1ccc(-c2noc(-c3cc(-c4ccc(F)cc4)n[nH]3)n2)cc1 | inactive: 72%
O=C(NCc1ccc(F)cc1)c1nnc(Cc2cccc(F)c2)o1 | inactive: 90%
CCOC(=O)CCCCN(Cc1ccccc1F)S(=O)(=O)c1ccc(F)c(C(=O)Nc2cc(Cl)cc(Cl)c2)c1 | inactive: 79%
COc1cc(-c2noc(-c3ccc(NC4CCCC4)c([N+](=O)[O-])c3)n2)cc(OC)c1OC | inactive: 88%
CN(c1ccc(F)cc1)S(=O)(=O)N1CCCC(C(=O)NCCc2ccccc2)C1 (stereo unspecified) | inactive: 105%
COc1ccc(C2=NC(C)(C)N(CC(=O)Nc3cc(OC)cc(OC)c3)C2=O)cc1 | inactive: 116%
CCN1CCN(c2cc(C)c3cc(NC(=O)/C=C/c4cccc(OC)c4OC)ccc3n2)CC1 | inactive: 83%
